# Assay results taken from the supplement of paper PMC10126150.
# Values marked as one replicate rest on one cluster of the flow cell; about a third of the high ones do not repeat.
# Tested on: ATP
# Assay: switch fluorescence ratio, 500 uM ATP over buffer (Cy3 cluster intensity, sum of 5 cycles each) (fold (ratio)); higher = stronger signal-on switching upon ATP binding; sequences stand for … in TCGTCGGCAGCGTCAGATGTGTATAAGAGACAGTTTTTTTTTTTTTTTTTTTTTTTTT…TC
# Settings: aptamer strand: ATP DNA aptamer (quencher-CACCTGGGGGAGTATTGCGGAGGAAGG + anchor), 100 nM annealed; ATP concentration: 500 uM; one replicate
# In short: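 Per cluster, summed Cy3 intensity from the target cycles was divided by that from the buffer cycles to give the fluorescence ratio, then averaged per switch-domain sequence. Clusters outside 100-1000 RFU were excluded. The Cy3-labelled switching-strand clusters, on a modified Illumina MiSeq flow-cell, were annealed to 100 nM quencher-labelled ATP aptamer and imaged in selection buffer, then after 15 min with 500 uM ATP at 22 °C, for five cycles with NaOH stripping and re-annealing between them.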
# 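Further: ATP exposure 15 min at 22 °C before imaging.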
row,Sequence,switch fluorescence ratio
1,GGGGAGTGGA,0.974
2,GGGGATAGG,0.984
3,GGGGATCTAT,0.945
4,GGGGCAAACG,1.03
5,GGGGCACCGG,0.994
6,GGGGCCGTAG,0.985
7,GGGGCGAAGC,1.18
8,GGGGCGAGGC,1.05
9,GGGGCGAGTT,1.02
10,GGGGCGTTT,1
11,GGGGCTGCAT,0.967
12,GGGGCTTTAC,1.92
13,GGGGGCGAGG,0.983
14,GGGGGCGCGC,0.977
15,GGGGGGACTC,1.05
16,GGGGGTTGC,1.03
17,GGGGGTTTCC,1.02
18,GGGGGTTTT,1.02
19,GGGGTACAAG,0.981
20,GGGGTCATCG,1.01
21,GGGGTCATGG,0.975
22,GGGGTCTGT,0.984
23,GGGGTGGTCT,0.978
24,GGGGTGGTGA,1.04
25,GGGGTTCCGA,1.02
26,GGGGTTGCAA,0.992

row,Sequence,switch fluorescence ratio
1,GGGTAATACG,1.1
2,GGGTAATCGT,0.996
3,GGGTACAATA,1.03
4,GGGTACCAG,0.974
5,GGGTACCGCT,0.958
6,GGGTACGTGC,1.03
7,GGGTACTCTC,1.04
8,GGGTACTTTC,1.01
9,GGGTAGGGCT,1.03
10,GGGTAGTACT,0.988
11,GGGTATCGTG,0.94
12,GGGTATTCCT,0.985
13,GGGTCAACTG,1.07
14,GGGTCAACTT,0.991
15,GGGTCAAGAA,0.983
16,GGGTCAGTTA,1.01
17,GGGTCATGCG,1.03
18,GGGTCCAGAC,1.02
19,GGGTCCGAAG,0.99
20,GGGTCCTCGG,0.977
21,GGGTCCTTGG,0.995
22,GGGTCGATAA,0.992
23,GGGTCGGAT,0.998
24,GGGTCGGGTC,1.02
25,GGGTCTACCC,0.998
26,GGGTCTGGCG,0.971

row,Sequence,switch fluorescence ratio
1,GGGTCTGTC,1.32
2,GGGTCTTCCG,1.03
3,GGGTGAATTG,0.997
4,GGGTGCCTCG,1.02
5,GGGTGCGTGT,0.973
6,GGGTGCTTGT,1.02
7,GGGTGGCGAA,1.02
8,GGGTGTCGGC,0.976
9,GGGTGTCT,1.05
10,GGGTGTTTCG,0.964
11,GGGTTAAGAA,1.01
12,GGGTTATGA,1.01
13,GGGTTATGTC,1.07
14,GGGTTCCCCG,0.981
15,GGGTTCCGGA,1.06
16,GGGTTCGGCT,1.08
17,GGGTTCTGAT,0.969
18,GGGTTCTTGC,0.967
19,GGGTTGGCCT,0.986
20,GGGTTGGGC,0.942
21,GGGTTTAGTC,1.05
22,GGGTTTCCTA,0.966
23,GGTAACACGT,1
24,GGTAACGGTT,0.956
25,GGTAACTAG,0.966
26,GGTAACTTTC,1.05

row,Sequence,switch fluorescence ratio
1,GGTAAGAACG,1.02
2,GGTAAGATGC,1.07
3,GGTAAGCAGG,0.958
4,GGTAAGCCTC,1.05
5,GGTAAGGGAG,0.994
6,GGTAATCGCT,0.97
7,GGTAATGTG,1.01
8,GGTACAAACT,1.06
9,GGTACAACGG,1
10,GGTACAGCTT,0.973
11,GGTACCCGTG,1.05
12,GGTACCGAGG,0.998
13,GGTACGATTA,1.08
14,GGTACGGCTC,0.989
15,GGTACGTACG,1.53
16,GGTACGTAGT,1
17,GGTACGTGGA,1.01
18,GGTACTAGTT,0.999
19,GGTACTTATA,1.01
20,GGTAGAATTT,0.994
21,GGTAGACAG,0.986
22,GGTAGAGTTC,1.03
23,GGTAGATGAC,1.05
24,GGTAGATGGC,1.02
25,GGTAGGGAGT,0.981
26,GGTATAGG,0.98

row,Sequence,switch fluorescence ratio
1,GGTATAGGTT,1.01
2,GGTATAGTCC,1.02
3,GGTATATAAC,0.962
4,GGTATATCCA,1.01
5,GGTATCGCGT,0.966
6,GGTATCGTAA,0.985
7,GGTATGATAC,1.04
8,GGTATTGCG,1.02
9,GGTCAAAGCG,0.963
10,GGTCAACGT,0.987
11,GGTCAAGGCA,1.03
12,GGTCAGGACA,1.01
13,GGTCCAACTT,1.02
14,GGTCCACCCG,1.01
15,GGTCCCACCC,1.03
16,GGTCCCCATA,1.01
17,GGTCCCGACT,1.02
18,GGTCCCGGCA,0.971
19,GGTCCGGCTT,0.998
20,GGTCCTATAT,0.975
21,GGTCGAGCCA,0.979
22,GGTCGAGTGT,1
23,GGTCGATAGG,0.996
24,GGTCGCCAGT,1
25,GGTCGGCCTG,0.967
26,GGTCGGCTCG,0.929

row,Sequence,switch fluorescence ratio
1,GGTCGGGACT,1.04
2,GGTCTACCTC,1
3,GGTCTATTTC,0.958
4,GGTCTCCGT,0.965
5,GGTCTGCGGG,1
6,GGTCTGTAAC,1.02
7,GGTCTTCATA,0.999
8,GGTCTTGCG,0.933
9,GGTGAATACA,0.964
10,GGTGAATGAC,1.01
11,GGTGACTGCG,0.996
12,GGTGAGCGCT,0.998
13,GGTGAGGTGT,1.07
14,GGTGATATCT,0.984
15,GGTGCATTAC,6.43
16,GGTGCCGCTG,0.994
17,GGTGCCTAGG,1.03
18,GGTGCCTTAA,0.991
19,GGTGCGCAGA,0.992
20,GGTGCTAAG,1.02
21,GGTGGAGTCA,0.972
22,GGTGGCTATT,0.993
23,GGTGGGAGGT,1.02
24,GGTGGTAAGG,0.949
25,GGTGGTACAT,1
26,GGTGGTCGTA,1.08

row,Sequence,switch fluorescence ratio
1,GGTGGTCGTG,0.942
2,GGTGTATGAC,0.982
3,GGTGTCCTAC,1.04
4,GGTGTCGTAT,1.09
5,GGTGTCGTTG,0.976
6,GGTGTCTAAC,0.987
7,GGTGTGAAAG,0.966
8,GGTGTGATTA,0.972
9,GGTGTGCCCG,0.946
10,GGTGTGGATA,1.03
11,GGTGTGTCAG,1.01
12,GGTTAAAATA,0.973
13,GGTTAACGTT,1
14,GGTTAAGAAG,0.966
15,GGTTAATATC,1
16,GGTTACAAAT,0.939
17,GGTTACACCC,1.09
18,GGTTAGAGCG,0.987
19,GGTTAGCAAT,2.01
20,GGTTAGCGGT,0.994
21,GGTTAGTTA,1
22,GGTTATCATG,1.01
23,GGTTATTTGC,1.07
24,GGTTCAATCA,0.983
25,GGTTCACTTG,0.99
26,GGTTCAGCTA,1

row,Sequence,switch fluorescence ratio
1,GGTTCCTATT,1
2,GGTTCCTGAA,1.01
3,GGTTCGGCAC,1.02
4,GGTTCTAGAT,1.01
5,GGTTCTCTTA,1.04
6,GGTTGAAATT,1.01
7,GGTTGACAGA,1.01
8,GGTTGATTAC,1.01
9,GGTTGCAGGT,1.02
10,GGTTGCGATG,0.973
11,GGTTGCTTTA,1.01
12,GGTTGGAGGG,0.999
13,GGTTGGTGTC,0.98
14,GGTTGTCTGG,0.995
15,GGTTGTG,1.03
16,GGTTGTGCTC,0.982
17,GGTTGTTTAT,0.979
18,GGTTTAAGT,1.02
19,GGTTTAATG,0.991
